Results from the antibiotic and cytotoxicity screens of Wong et al. (2023).
This is one part of the list.

test system: HSkMC (human skeletal muscle cells); experiment: cytotoxicity call (relative viability < 0.9); details: 10 µM

Q: Which cytotoxicity call does the source give for C[C@@H]1CCCCO[C@H](CN(C)C(=O)Cc2ccccc2)[C@@H](C)CN([C@H](C)CO)C(=O)c2cc(NC(=O)Nc3ccc4c(c3)OCO4)ccc2O1 here?
A: inactive

Q: With C[C@@H]1CN([C@@H](C)CO)C(=O)c2cc(C3=CCCC3)cnc2O[C@H]1CN(C)C(=O)Nc1ccc(C(F)(F)F)cc1 as the molecule, how does the cytotoxicity call read?
A: inactive

Q: For C[C@H]1CN([C@@H](C)CO)C(=O)c2cccc(NS(C)(=O)=O)c2O[C@H]1CN(C)S(=O)(=O)c1cccs1, which cytotoxicity call is on record?
A: inactive

Q: For C[C@H]1CN([C@@H](C)CO)C(=O)Cc2cc(NS(C)(=O)=O)ccc2O[C@H]1CN(C)C(=O)Nc1ccc(F)cc1, which cytotoxicity call is on record?
A: inactive

Q: Which cytotoxicity call does the source give for C[C@H]1CN([C@@H](C)CO)C(=O)Cc2cc(NC(=O)CCN3CCOCC3)ccc2O[C@H]1CN(C)Cc1ccc(C(=O)O)cc1 here?
A: inactive

Q: Which cytotoxicity call does the source give for C[C@H]1CN([C@@H](C)CO)S(=O)(=O)c2ccc(C#CCN(C)C)cc2O[C@H]1CN(C)C(=O)CN(C)C here?
A: inactive

Q: O=C(C[C@H]1C=C[C@@H](NS(=O)(=O)c2ccccc2F)[C@H](CO)O1)NCCCN1CCOCC1 was tested. Which cytotoxicity call did it give?
A: inactive

Q: Which cytotoxicity call does the source give for C[C@@H]1CCCCO[C@@H](CN(C)Cc2ccc(C(F)(F)F)cc2)[C@@H](C)CN([C@H](C)CO)C(=O)c2cc(NC(=O)CCCN(C)C)ccc2O1 here?
A: inactive

Q: O=C(NC1CCCCCCC1)c1ccccc1-c1ccccc1 was tested. Which cytotoxicity call did it give?
A: inactive

Q: How did the cytotoxicity call turn out when C[C@@H]1CN([C@H](C)CO)C(=O)Cc2cc(NC(=O)Cc3ccccc3)ccc2O[C@H]1CN(C)Cc1ccc(-c2ccccc2)cc1 was run?
A: inactive

Q: C=CCOC(=O)[C@@H]1[C@H]2C(=O)O[C@H](c3ccccc3)[C@H](c3ccccc3)N2[C@H](c2ccc(OCCOC(=O)[C@@H]3C[C@@H]4C(=O)N5CCC[C@H]5C(=O)N4[C@@H]3c3ccc(O)cc3)cc2)[C@@]12C(=O)Nc1ccccc12 was tested. Which cytotoxicity call did it give?
A: inactive

Q: For Nc1cccc(-c2cccs2)c1, which cytotoxicity call is on record?
A: inactive

Q: Which cytotoxicity call does the source give for COCC(=O)N(C)C[C@@H]1Oc2cc(-c3ccc(C#N)cc3)ccc2S(=O)(=O)N([C@H](C)CO)C[C@H]1C here?
A: inactive

Q: Which cytotoxicity call does the source give for C[C@@H]1CN([C@@H](C)CO)C(=O)c2cccc(NC(=O)c3ccncc3)c2O[C@@H]1CN(C)Cc1ccncc1 here?
A: inactive

Q: For COc1ccc(S(=O)(=O)N(C)C[C@H]2Oc3ccc(NC(=O)Cc4ccccc4)cc3CC(=O)N([C@@H](C)CO)C[C@@H]2C)cc1, which cytotoxicity call is on record?
A: inactive

Q: With O=C(C[C@@H]1C[C@H]2c3cc(NS(=O)(=O)c4ccc(F)cc4)ccc3O[C@H]2[C@@H](CO)O1)NCc1cccc(F)c1 as the molecule, how does the cytotoxicity call read?
A: inactive

Q: Cc1cccc(S(=O)(=O)N2C[C@@H](O)COC[C@@H]3O[C@@H](CC(=O)NCCCN4CCOCC4)CC[C@H]32)c1 was tested. Which cytotoxicity call did it give?
A: inactive

Q: COc1ccc(C(=O)NC(CO)(CO)CO)cc1OC was tested. Which cytotoxicity call did it give?
A: inactive

Q: With C[C@H]1CNC(=CC(=O)c2ccccc2)C(=O)N1 as the molecule, how does the cytotoxicity call read?
A: inactive

Q: How did the cytotoxicity call turn out when COc1ccc(S(=O)(=O)N(C)C[C@@H]2OCCCC[C@@H](C)Oc3ccc(NC(=O)Nc4ccc(F)cc4)cc3C(=O)N([C@@H](C)CO)C[C@@H]2C)cc1 was run?
A: inactive

Q: For C[C@H](CO)N1C[C@H](C)[C@H](CN(C)Cc2ccc(C(F)(F)F)cc2)Oc2c(NC(=O)c3ccc(-c4nccs4)cc3)cccc2C1=O, which cytotoxicity call is on record?
A: inactive

Q: COc1cccc(C#Cc2ccc([C@@H]3[C@H]4CN(S(=O)(=O)c5ccccc5C)CC(=O)N4[C@H]3CO)cc2)c1 was tested. Which cytotoxicity call did it give?
A: inactive

Q: C[C@@H]1CN([C@@H](C)CO)C(=O)c2cc(NC(=O)CCC(F)(F)F)ccc2O[C@@H](C)CCCCO[C@H]1CN(C)C(=O)Nc1ccc(C(F)(F)F)cc1 was tested. Which cytotoxicity call did it give?
A: inactive

Q: How did the cytotoxicity call turn out when C[C@@H]1CN([C@@H](C)CO)C(=O)Cc2cc(NC(=O)Nc3ccc4c(c3)OCO4)ccc2O[C@@H]1CN(C)Cc1ccc(-c2ccccc2)cc1 was run?
A: inactive

Q: How did the cytotoxicity call turn out when C[C@H](CO)N1C[C@H](C)[C@H](CN(C)Cc2ccc(Oc3ccccc3)cc2)Oc2ccc(NS(=O)(=O)c3ccccc3)cc2C1=O was run?
A: inactive

Q: Cc1noc(C)c1NC(=O)N(C)C[C@H]1Oc2ccc(NC(=O)NC(C)C)cc2CC(=O)N([C@H](C)CO)C[C@H]1C was tested. Which cytotoxicity call did it give?
A: inactive

Q: Which cytotoxicity call does the source give for C[C@@H]1CN([C@@H](C)CO)C(=O)c2cc(NC(=O)Cn3cnnn3)ccc2O[C@@H]1CN(C)Cc1ccc(C(=O)O)cc1 here?
A: inactive

Q: C=CCNC(=O)[C@H]1[C@@H]2C(=O)O[C@@H](c3ccccc3)[C@@H](c3ccccc3)N2[C@@H](c2ccc(OCCO)cc2)[C@]12C(=O)N(C(=O)OCCOC)c1ccc(C#CC3(O)CCCCCC3)cc12 was tested. Which cytotoxicity call did it give?
A: inactive

Q: COc1ccc(NC(=O)Nc2ccc3c(c2)C(=O)N([C@@H](C)CO)C[C@@H](C)[C@H](CN(C)Cc2ccccc2)OCCCC[C@@H](C)O3)cc1 was tested. Which cytotoxicity call did it give?
A: inactive

Q: C[C@@H]1CN([C@@H](C)CO)C(=O)Cc2cc(NS(=O)(=O)c3cn(C)cn3)ccc2O[C@@H]1CN(C)Cc1ccc(C(=O)Nc2ccccc2N)cc1 was tested. Which cytotoxicity call did it give?
A: inactive

test system: S. aureus RN4220; experiment: growth inhibition call (relative growth <= 0.2); details: 50 µM

Q: Which growth inhibition call does the source give for COc1ccc([Si](C)(C)[C@H]2[C@H](CCn3cc([C@H](O)c4ccccc4)nn3)O[C@@]3(C(=O)N(Cc4ccc(N5C(=O)c6cccc7cccc5c67)cc4)c4ccccc43)[C@@H]2C)cc1 here?
A: inactive

Q: O=C(Nc1nccs1)[C@H]1[C@H](CO)[C@H]2Cn3c(cccc3=O)[C@@H]1N2C(=O)C1CC1 was tested. Which growth inhibition call did it give?
A: inactive

Q: For COc1ccc(NC(=O)N(C)C[C@@H]2OCCCC[C@@H](C)Oc3ccc(NC(=O)Nc4ccc(F)cc4)cc3C(=O)N([C@H](C)CO)C[C@H]2C)cc1, which growth inhibition call is on record?
A: inactive

Q: With NC1=CC(=O)c2ccccc2C1=O as the molecule, how does the growth inhibition call read?
A: inactive

Q: With COc1ccc(S(=O)(=O)N(C)C[C@H]2Oc3c(NS(=O)(=O)c4ccccc4)cccc3C(=O)N([C@H](C)CO)C[C@H]2C)cc1 as the molecule, how does the growth inhibition call read?
A: inactive

Q: OCCN1CCN(c2ncnc3c2ncn3[C@H]2CN(Cc3cccc(C(F)(F)F)c3)C[C@@H](CO)O2)CC1 was tested. Which growth inhibition call did it give?
A: inactive

Q: CO[C@@H]1CN(C)C(=O)c2cc(NS(=O)(=O)c3ccccc3)ccc2OC[C@H](C)N(C(=O)NC(C)C)C[C@H]1C was tested. Which growth inhibition call did it give?
A: inactive

Q: For C[C@@H]1CN([C@H](C)CO)C(=O)c2cc(NS(=O)(=O)c3ccc(Cl)cc3)ccc2O[C@@H](C)CCCCO[C@H]1CN(C)Cc1ccc2c(c1)OCO2, which growth inhibition call is on record?
A: inactive

Q: With C[C@@H]1CN([C@@H](C)CO)C(=O)Cc2cc(NC(=O)Cc3ccccc3)ccc2O[C@@H]1CN(C)Cc1ccc(C(F)(F)F)cc1 as the molecule, how does the growth inhibition call read?
A: inactive

Q: C[C@@H]1CN([C@H](C)CO)C(=O)Cc2cc(NC(=O)C3CC3)ccc2O[C@H]1CN(C)Cc1ccc(C(=O)O)cc1 was tested. Which growth inhibition call did it give?
A: inactive

Q: Which growth inhibition call does the source give for C[C@@H]1CCCCO[C@H](CN(C)C(=O)Cc2ccccc2)[C@@H](C)CN([C@H](C)CO)C(=O)c2cc(NC(=O)Nc3ccc4c(c3)OCO4)ccc2O1 here?
A: inactive

Q: How did the growth inhibition call turn out when C[C@@H]1CN([C@@H](C)CO)C(=O)c2cc(C3=CCCC3)cnc2O[C@H]1CN(C)C(=O)Nc1ccc(C(F)(F)F)cc1 was run?
A: inactive

Q: C[C@H]1CN([C@@H](C)CO)C(=O)c2cccc(NS(C)(=O)=O)c2O[C@H]1CN(C)S(=O)(=O)c1cccs1 was tested. Which growth inhibition call did it give?
A: inactive

Q: How did the growth inhibition call turn out when C[C@H]1CN([C@@H](C)CO)C(=O)Cc2cc(NS(C)(=O)=O)ccc2O[C@H]1CN(C)C(=O)Nc1ccc(F)cc1 was run?
A: inactive

Q: C[C@H]1CN([C@@H](C)CO)C(=O)Cc2cc(NC(=O)CCN3CCOCC3)ccc2O[C@H]1CN(C)Cc1ccc(C(=O)O)cc1 was tested. Which growth inhibition call did it give?
A: inactive

Q: For C[C@H]1CN([C@@H](C)CO)S(=O)(=O)c2ccc(C#CCN(C)C)cc2O[C@H]1CN(C)C(=O)CN(C)C, which growth inhibition call is on record?
A: inactive

Q: With O=C(C[C@H]1C=C[C@@H](NS(=O)(=O)c2ccccc2F)[C@H](CO)O1)NCCCN1CCOCC1 as the molecule, how does the growth inhibition call read?
A: inactive

Q: Which growth inhibition call does the source give for C[C@@H]1CCCCO[C@@H](CN(C)Cc2ccc(C(F)(F)F)cc2)[C@@H](C)CN([C@H](C)CO)C(=O)c2cc(NC(=O)CCCN(C)C)ccc2O1 here?
A: inactive

Q: With O=C(NC1CCCCCCC1)c1ccccc1-c1ccccc1 as the molecule, how does the growth inhibition call read?
A: inactive

Q: C[C@@H]1CN([C@H](C)CO)C(=O)Cc2cc(NC(=O)Cc3ccccc3)ccc2O[C@H]1CN(C)Cc1ccc(-c2ccccc2)cc1 was tested. Which growth inhibition call did it give?
A: inactive

Q: How did the growth inhibition call turn out when C=CCOC(=O)[C@@H]1[C@H]2C(=O)O[C@H](c3ccccc3)[C@H](c3ccccc3)N2[C@H](c2ccc(OCCOC(=O)[C@@H]3C[C@@H]4C(=O)N5CCC[C@H]5C(=O)N4[C@@H]3c3ccc(O)cc3)cc2)[C@@]12C(=O)Nc1ccccc12 was run?
A: inactive

Q: For Nc1cccc(-c2cccs2)c1, which growth inhibition call is on record?
A: inactive

Q: For COCC(=O)N(C)C[C@@H]1Oc2cc(-c3ccc(C#N)cc3)ccc2S(=O)(=O)N([C@H](C)CO)C[C@H]1C, which growth inhibition call is on record?
A: inactive

Q: Which growth inhibition call does the source give for C[C@@H]1CN([C@@H](C)CO)C(=O)c2cccc(NC(=O)c3ccncc3)c2O[C@@H]1CN(C)Cc1ccncc1 here?
A: inactive

Q: For COc1ccc(S(=O)(=O)N(C)C[C@H]2Oc3ccc(NC(=O)Cc4ccccc4)cc3CC(=O)N([C@@H](C)CO)C[C@@H]2C)cc1, which growth inhibition call is on record?
A: inactive

Q: For O=C(C[C@@H]1C[C@H]2c3cc(NS(=O)(=O)c4ccc(F)cc4)ccc3O[C@H]2[C@@H](CO)O1)NCc1cccc(F)c1, which growth inhibition call is on record?
A: inactive

Q: Cc1cccc(S(=O)(=O)N2C[C@@H](O)COC[C@@H]3O[C@@H](CC(=O)NCCCN4CCOCC4)CC[C@H]32)c1 was tested. Which growth inhibition call did it give?
A: inactive

Q: Which growth inhibition call does the source give for COc1ccc(C(=O)NC(CO)(CO)CO)cc1OC here?
A: inactive

Q: Which growth inhibition call does the source give for C[C@H]1CNC(=CC(=O)c2ccccc2)C(=O)N1 here?
A: inactive

Q: How did the growth inhibition call turn out when COc1ccc(S(=O)(=O)N(C)C[C@@H]2OCCCC[C@@H](C)Oc3ccc(NC(=O)Nc4ccc(F)cc4)cc3C(=O)N([C@@H](C)CO)C[C@@H]2C)cc1 was run?
A: inactive

Q: C[C@H](CO)N1C[C@H](C)[C@H](CN(C)Cc2ccc(C(F)(F)F)cc2)Oc2c(NC(=O)c3ccc(-c4nccs4)cc3)cccc2C1=O was tested. Which growth inhibition call did it give?
A: inactive

Q: COc1cccc(C#Cc2ccc([C@@H]3[C@H]4CN(S(=O)(=O)c5ccccc5C)CC(=O)N4[C@H]3CO)cc2)c1 was tested. Which growth inhibition call did it give?
A: inactive

Q: Which growth inhibition call does the source give for C[C@@H]1CN([C@@H](C)CO)C(=O)c2cc(NC(=O)CCC(F)(F)F)ccc2O[C@@H](C)CCCCO[C@H]1CN(C)C(=O)Nc1ccc(C(F)(F)F)cc1 here?
A: inactive
